Source: PMC4336329 (PLoS ONE, 2015)
Out of some 310,000 compounds screened, about 14,000 (4.5%) showed an effect of 50% or more. The effect is printed as a negative number. Some of the results follow.

The compounds below were run against human ether-à-go-go-related gene (hERG) potassium channel (human, UniProt Q12809) (assay: primary screen, population patch clamp on CHO cells stably expressing hERG).
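Also: peak tail current of the secondary pulse compared with the same well before compound.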

Sequence of human ether-à-go-go-related gene (hERG) potassium channel (Q12809 whole entry, looked up): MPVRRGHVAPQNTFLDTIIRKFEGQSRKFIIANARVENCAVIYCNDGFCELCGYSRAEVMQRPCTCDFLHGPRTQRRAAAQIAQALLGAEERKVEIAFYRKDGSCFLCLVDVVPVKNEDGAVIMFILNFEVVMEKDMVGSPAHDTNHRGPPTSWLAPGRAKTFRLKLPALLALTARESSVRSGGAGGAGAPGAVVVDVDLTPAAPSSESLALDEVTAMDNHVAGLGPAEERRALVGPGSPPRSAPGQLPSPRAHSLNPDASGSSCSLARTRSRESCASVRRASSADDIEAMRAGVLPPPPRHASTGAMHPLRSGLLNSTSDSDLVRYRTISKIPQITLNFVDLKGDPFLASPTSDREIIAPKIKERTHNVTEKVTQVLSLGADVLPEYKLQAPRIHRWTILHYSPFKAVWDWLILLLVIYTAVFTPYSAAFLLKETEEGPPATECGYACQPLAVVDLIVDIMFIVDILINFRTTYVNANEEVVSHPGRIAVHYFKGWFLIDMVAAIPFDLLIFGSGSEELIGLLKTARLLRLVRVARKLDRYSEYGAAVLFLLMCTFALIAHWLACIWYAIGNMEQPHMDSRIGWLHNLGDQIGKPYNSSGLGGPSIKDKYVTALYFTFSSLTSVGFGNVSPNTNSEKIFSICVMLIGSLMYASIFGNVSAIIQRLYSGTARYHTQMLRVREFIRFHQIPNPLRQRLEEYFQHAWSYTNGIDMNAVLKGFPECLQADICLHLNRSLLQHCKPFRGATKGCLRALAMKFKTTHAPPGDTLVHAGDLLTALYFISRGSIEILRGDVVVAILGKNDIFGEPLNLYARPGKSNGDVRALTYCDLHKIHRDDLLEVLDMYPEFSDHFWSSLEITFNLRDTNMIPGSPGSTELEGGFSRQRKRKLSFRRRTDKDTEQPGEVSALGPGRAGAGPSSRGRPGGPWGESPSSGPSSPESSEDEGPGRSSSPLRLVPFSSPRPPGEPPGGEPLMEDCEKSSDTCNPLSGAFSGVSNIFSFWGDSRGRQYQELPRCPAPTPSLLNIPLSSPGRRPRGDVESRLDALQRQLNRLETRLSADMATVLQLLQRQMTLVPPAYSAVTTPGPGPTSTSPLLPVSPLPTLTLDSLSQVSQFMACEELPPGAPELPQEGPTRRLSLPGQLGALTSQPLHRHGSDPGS

SMILES | hERG current change (%, negative = inhibition) at 10uM
Nn1c(SCc2ccc(Br)cc2)nnc1-c1ccccn1 | 17.5%
COC(=O)C(C)Sc1nnc(Cc2cc(=O)[nH]c(=O)[nH]2)n1-c1cc(C)ccc1C (stereo not drawn) | 6.3%
CCOC(=O)C1=C(N)n2c(s/c(=C/c3ccco3)c2=O)=C(C(=O)OC)C1c1ccco1 (stereo not drawn) | -2.57%
O=C(O)CCCCCNS(=O)(=O)c1ccc2c(c1)OCCO2 | 19%
O=C(NC1CS(=O)(=O)CC1NCc1ccco1)c1ccccc1 (stereo not drawn) | 2.09%
CN(CCC1CCOCC1)C(=O)CC1C(=O)NCCN1C/C=C/c1ccccc1 (stereo not drawn) | 21.3%
Cc1ccc(C(=O)COC(=O)CNC(=O)c2cccs2)cc1C | -22%
CC(C)CNc1nnnc2c1sc1nc(N3CCOCC3)c3c(c12)CC(C)(C)SC3 | -20.8%
CN1CCN(NC(=O)c2ccc(S(=O)(=O)N3CCCCCC3)cc2)CC1.Cl | 8.34%
COc1ccc(C(C#N)(CCC#N)CCC#N)cc1OC | -11.3%
CC(NS(=O)(=O)c1ccc([N+](=O)[O-])cc1)C(c1cccs1)N1CCOCC1 (stereo not drawn) | -29.9%
Cc1cc(=O)oc2cc(NC(=O)c3ccccc3C(=O)O)ccc12 | 15.7%
Cc1ccc(NC(=O)CC2OC(=O)c3ccccc32)cc1S(=O)(=O)N1CCOCC1 (stereo not drawn) | -14.5%
COC(=O)c1[nH]c2cccc(OC)c2c1NC(=O)CCN1CCSCC1 | 22%
CCc1nnc(NC(=O)c2ccc(S(=O)(=O)NCC(C)C)cc2)s1 | 6.37%
COc1ccccc1N1CCN(c2nc3ccccc3nc2C(C#N)C(=O)OC(C)C)CC1 (stereo not drawn) | -12%
Cc1cccc(C)c1OCC(O)CN.Cl.O (stereo not drawn) | 4.14%
CCC(=O)OCC(=O)Nc1ncc(C(F)(F)F)cc1Cl | -1.65%
COc1ccc(CC(=O)OCC(=O)Nc2cccc(Cl)c2)cc1 | 16.1%
O=C(COC(=O)CCCN1C(=O)c2ccccc2C1=O)Nc1cc(Cl)cc(Cl)c1 | -3.11%
Cc1cccc(C)c1N1C(=O)CCC(C)(C)C1=O | 18.3%
O=C(NCC(=O)N1CCN(c2ccccc2O)CC1)c1ccc2ccccc2c1 | 9.32%

SMILES | hERG current change (%, negative = inhibition) at 10uM
C=CCOC(=O)C1=C(C)OC(N)=C(C#N)C1c1ccco1 (stereo not drawn) | 12.7%
Cc1ccc(NC(=O)C2CCN(S(=O)(=O)c3ccc(Cl)c(C(F)(F)F)c3)CC2)nc1 | -16.4%
Cl.NC(=O)c1c(NC(=O)c2ccccc2)sc2c1CCN(Cc1ccccc1)C2 | 7.85%
CNS(=O)(=O)c1cn(CC(=O)NCc2ccc(F)cc2)cc1S(=O)(=O)NC | 16.5%
S=c1[nH]nc(Cc2n[nH]c(=S)n2-c2ccccc2)n1-c1ccccc1 | 14.7%
COCC(C)N=CC1=C(O)CC(C)(C)CC1=O (stereo not drawn) | 12.8%
c1ccc(CSc2nnc(-c3sccc3-n3cccc3)o2)cc1 | 0.0569%
Cc1c(N2C(=O)/C(=C3/C(=O)N(C)c4ccccc43)SC2=S)c(=O)n(-c2ccccc2)n1C | 4.14%
CCOC(=O)c1nccnc1C(=O)Nc1cccc(C(F)(F)F)c1 | -19.3%
CN(Cc1nc(-c2cnccn2)no1)CC(O)c1ccccc1 (stereo not drawn) | 3.4%
CC(C)C(C(=O)Nc1ccc(N2CCOCC2)cc1)N1C(=O)c2ccccc2C1=O (stereo not drawn) | -5.2%
C#CC(CC)(CC)NC(=O)/C=C/C(=O)O | 18%
CN(CC(=O)Nc1ccccc1Cl)C(=O)CSc1ncc(C(F)(F)F)cc1Cl | 9.55%
O=C(Nc1nnc(-c2ccc(F)cc2)o1)C1CCCN1S(=O)(=O)c1cccs1 (stereo not drawn) | -14.1%
C=CCn1c(C)nnc1SCC(=O)Nc1nccs1 | 16.6%
CCN(C(=O)COC(=O)c1cc([N+](=O)[O-])ccc1N1CCOCC1)C1CCS(=O)(=O)C1 (stereo not drawn) | 1.37%
NC(=S)N/N=C/c1cn(-c2ccccc2)nc1-c1cccnc1 | 11.8%
Cc1cc(C)c2nc(N3CCCC(C(=O)NCCCN4CCOCC4)C3)sc2c1 (stereo not drawn) | -7.17%
c1ccc(CCn2cnc3ccccc32)cc1 | 10.1%
FC(F)(F)Oc1ccccc1-c1nnc(-c2cccc(C(F)(F)F)c2)o1 | 3.84%
O=C(Nc1ccccc1)c1ccc(COc2ccccc2)cc1 | 0.885%
COC(=O)c1ccccc1NC(=O)c1cnc2sccn2c1=O | 1.97%

SMILES | hERG current change (%, negative = inhibition) at 10uM
CCC1(c2ccccc2)NC(=O)N(CC(=O)Nc2cc(Cl)ccc2N2CCN(C)CC2)C1=O (stereo not drawn) | -60.8%
O=C(O)CCCCCNC(=O)/C=C/c1ccco1 | 24.4%
CC(C)(C)c1ccc(CNC(=O)c2ccc3c(c2)NC(=O)CO3)cc1 | 4.11%
O=C(NCCc1c[nH]c2ccccc12)c1cc2sccc2n1Cc1ccccc1 | 7.09%
Cl.O.O=C1C2CCCCN2C(=O)N1CCCCN1CCN(c2ccccc2Oc2ccccc2)CC1 (stereo not drawn) | -55.7%
COCCN(C(=O)Cc1cccs1)C(C(=O)NC1CCCC1)c1cc(OC)c(OC)c(OC)c1 (stereo not drawn) | 8.79%
CC(NC(=S)Nc1ccccc1C(F)(F)F)C1CC2CCC1C2 (stereo not drawn) | 46.4%
O=C(CN1CCN(C(=O)CNC(=O)c2ccc3c(c2)OCO3)CC1)Nc1ccccc1Cl | -49.3%
CCn1cc(S(=O)(=O)c2ccc(C)cc2)[nH]c1=O | 11.8%
Cc1ccccc1/C=N/NC(=O)Cn1cnc([N+](=O)[O-])n1 | -2.16%
COc1ccnc(Oc2ccc3ccccc3c2)c1C#N | 11.4%
CC(=O)Nc1ccc(NC(=O)C(C)OC(=O)c2ccc3c(c2)OCCO3)cc1 (stereo not drawn) | 14.4%
Cc1ccc(C)c(C(C)NC(=O)c2ccncc2)c1 (stereo not drawn) | -7.4%
CC(NC(=O)CNC(=O)Cc1cccc2ccccc12)c1ccc(S(N)(=O)=O)cc1 (stereo not drawn) | 10.6%
COc1ccc(/C(O)=C2/C(=O)C(=O)N(CCN(C)C)C2c2ccccc2)cc1Cl (stereo not drawn) | -0.935%
CCOc1ccc(S(=O)(=O)Nc2cc(C)ccn2)c2ccccc12 | 2.84%
CNc1c(C(=O)O)ccc2c1C(=O)c1ccccc1C2=O | -0.756%
Cc1coc2cc3oc(=O)c(CCC(=O)N4CCC(C(=O)O)(c5ccccc5)CC4)c(C)c3cc12 | 0.933%
Cc1cccc(Oc2ncnc3oc(-c4ccccc4)cc23)c1C | -2.23%
O=C(Cn1cc(C(F)(F)F)cc(Cl)c1=O)Nc1cc(S(=O)(=O)N2CCOCC2)ccc1Cl | 0.904%
CCCc1cc(=O)[nH]c(SCCCCN2C(=O)c3ccccc3C2=O)n1 | 14.5%
Cn1ncc(C#N)c1/N=C/N(Cc1ccccc1)Cc1ccccc1 | -9.12%

SMILES | hERG current change (%, negative = inhibition) at 10uM
COc1ccc(NC(=O)CN(C)C(=O)c2c(C)nn(-c3ccccc3)c2Cl)cc1 | -1.42%
N#Cc1ccccc1NC(=O)C(=O)NCCCN1CCCC1=O | -36.5%
Nc1c(-c2ccc(Cl)cc2)cnc2c(-c3ccc(F)cc3)cnn12 | 24%
COc1ccc(C)cc1S(=O)(=O)N(C)CC(=O)NC1CC1 | 9.54%
Cc1cccc(N=c2oc3cc(O)ccc3cc2C(N)=O)c1 | -17.3%
O=C(NCc1ccccc1F)C1CCCN1S(=O)(=O)c1ccc(Cl)cc1 (stereo not drawn) | -8.3%
CC[C@@H]1CN(C)[C@H]2Cc3c([nH]c4ccccc34)C(=O)C[C@@H]1[C@@H]2C(=O)OC | 11.8%
COC(=O)[C@]1(Cc2ccccc2)N[C@H](c2ccc(-c3ccccc3)cc2)[C@@H]2C(=O)N(C)C(=O)[C@@H]21.O=C(O)C(F)(F)F | 11.4%
Cc1nc(C)n(CCNC(=O)c2ccco2)n1 | 27%
CC(C)(C)n1nc2c(c1NC(=O)c1cccc(C(F)(F)F)c1)CS(=O)C2 (stereo not drawn) | -7.23%
CCN(CC)c1nc2c(C)cccn2c(=O)c1C=C1C(=O)NC(=O)NC1=O | 11.6%
COc1ccc(C(=O)Nc2ccc3cn[nH]c3c2)c(OC)c1 | 12.6%
Oc1[nH]c2ccccc2c1N=Nc1nncc2ccccc12 | -15%
COC(=O)NNC(=O)c1ccc(Cl)cc1Cl | 19.8%
Cc1ccccc1OCCCCCn1ccnc1 | -25.7%
O=C1CCC(=O)N1c1nc2n(n1)C(c1ccccc1)C=C(c1ccc(Br)cc1)N2 (stereo not drawn) | 1.46%
CCN(CC)S(=O)(=O)c1ccc(C)c(NC(=S)Nc2cccc(S(=O)(=O)N3CCCCCC3)c2)c1 | -4.58%
CC(=C/c1ccccc1)/C=N/NC(=O)CSc1nc(C)cc(C)n1 | 12.8%
O=P(Nc1cccnc1)(Oc1ccccc1)Oc1ccccc1 | 13.8%
COc1ccc(/C=C2\CCCC3C2=NN(C(=O)c2ccco2)C3c2ccc(OC)c(OC)c2)cc1OC (stereo not drawn) | -22.5%
N=c1c(C(=O)NC2CCCCC2)cc2c(=O)n3ccccc3nc2n1Cc1ccco1 | -77%
